Measurements taken from PubChem BioAssay AID1434 (Sanford-Burnham Center for Chemical Genomics, 2008).
This is one part of the list. Shown are side measurements of this screen, not its main read-out; they come without a call. The list favours compounds with an active or inconclusive main result.

Molecular target: Runt-related transcription factor 1 (Homo sapiens) + Core-binding factor subunit beta (Homo sapiens) (UniProt Q01196+Q13951)
Experiment: disruptors of Runt domain/CBFb-SMMHC interaction – biochemical, FRET, Cerulean-Runt, Venus-CBFb-SMMHC, uHTS, primary screen (AID 1434);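 note: 0% = DMSO wells and 100% = wells with excess untagged CBFb-SMMHC; inhibitors lower the FRET ratio by blocking Runt binding to CBFb-SMMHC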
Conditions: Cerulean-Runt/Venus-CBFb-SMMHC FRET ratio 530/480, 1 h; retest duplicate average; at 20 µM; stronger effect = higher value

UniProt Q01196, sequence (Q01196 whole entry, looked up, the tested form may be a part): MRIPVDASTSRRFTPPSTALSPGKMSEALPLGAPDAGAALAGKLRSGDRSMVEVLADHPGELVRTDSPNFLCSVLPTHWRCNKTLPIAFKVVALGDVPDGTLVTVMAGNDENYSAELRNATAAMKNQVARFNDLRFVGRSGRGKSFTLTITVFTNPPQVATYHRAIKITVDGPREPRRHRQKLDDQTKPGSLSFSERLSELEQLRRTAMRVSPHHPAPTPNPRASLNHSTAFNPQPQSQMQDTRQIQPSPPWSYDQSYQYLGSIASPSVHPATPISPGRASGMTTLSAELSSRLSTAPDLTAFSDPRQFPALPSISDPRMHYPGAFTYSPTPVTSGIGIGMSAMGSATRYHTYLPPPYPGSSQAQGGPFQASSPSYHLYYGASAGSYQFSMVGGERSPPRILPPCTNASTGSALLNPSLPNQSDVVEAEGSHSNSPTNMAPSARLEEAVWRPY
UniProt Q01196, sequence (Q13951 whole entry, looked up, the tested form may be a part): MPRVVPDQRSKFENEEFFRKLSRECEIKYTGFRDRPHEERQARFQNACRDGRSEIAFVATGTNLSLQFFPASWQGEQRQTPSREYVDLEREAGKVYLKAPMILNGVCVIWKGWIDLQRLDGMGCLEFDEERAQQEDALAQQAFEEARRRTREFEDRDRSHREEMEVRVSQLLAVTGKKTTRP

Q: With `CCCCNC(=O)c1c(N)n(CCCOC)c2nc3ccccc3nc12` as the compound, how does the inhibition read?
A: 72.4%

Q: With `CCOC(=O)c1c(NC(=O)c2c(N)n(CCCOC)c3nc4ccccc4nc23)sc2c1CCCC2` as the compound, how does the inhibition read?
A: 118%

Q: Which inhibition does the source give for `O=C(N/N=C/c1c(O)n(Cc2ccc(F)cc2)c(=S)[nH]c1=O)c1ccncc1` here?
A: 73.8%

Q: Which inhibition does the source give for `COc1ccc(Cn2c(N)c(C(=O)NCc3ccco3)c3nc4ccccc4nc32)cc1` here?
A: 55%

Q: With `CC(C)(C)OC(=O)c1c(N)n(Cc2ccco2)c2nc3ccccc3nc12` as the compound, how does the inhibition read?
A: 124%

Q: With `CCCOC(=O)c1c(N)n(Cc2cccs2)c2nc3ccccc3nc12` as the compound, how does the inhibition read?
A: 123%

Q: How did the inhibition turn out when `CC(C)CCOC(=O)c1c(N)n(CC2CCCO2)c2nc3ccccc3nc12` (configuration not stated) was run?
A: 100%

Q: With `O=C1NC(=O)C2=Cc3ccc(O)cc3OC2(O)N1` (configuration not stated) as the compound, how does the inhibition read?
A: 70.6%

Q: `O=C1NC(=O)N(c2ccccc2)C(=O)/C1=C\C=C\c1ccccc1` was tested. Which inhibition did it give?
A: 56.8%

Q: With `CCCCOCCCn1c(N)c(C(=O)OCCOC)c2nc3ccccc3nc21` as the compound, how does the inhibition read?
A: 130%

Q: How did the inhibition turn out when `Nc1c(C(=O)NCc2ccco2)c2nc3ccccc3nc2n1CCN1CCOCC1` was run?
A: 136%

Q: How did the inhibition turn out when `CCOC(=O)c1c(N)n(CCCOC(=O)c2ccco2)c2nc3ccccc3nc12` was run?
A: 149%

Q: For `CC(C)CNC(=O)c1c(N)n(Cc2ccc3c(c2)OCO3)c2nc3ccccc3nc12`, which inhibition is on record?
A: 65.2%

Q: With `Oc1cc2c(cc1O)[C@H]1c3ccccc3CN[C@@H]1CC2` as the compound, how does the inhibition read?
A: 52.1%

Q: With `Cc1ccc(-n2c(O)c(/C=C/C=Nc3ccccc3)c(=O)[nH]c2=O)cc1` as the compound, how does the inhibition read?
A: 62.6%

Q: With `CCCCn1c(NC(=O)c2ccco2)c(C(=O)OCC)c2nc3ccccc3nc21` as the compound, how does the inhibition read?
A: 65.7%

Q: `O=C(N/N=C/c1c(O)n(C2CC2)c(=S)[nH]c1=O)c1ccccc1O` was tested. Which inhibition did it give?
A: 80.2%

Q: `CC(C)OCCCNC(=O)c1c(N)n(CC2CCCO2)c2nc3ccccc3nc12` (configuration not stated) was tested. Which inhibition did it give?
A: 71.5%

Q: Which inhibition does the source give for `CCCCn1c(N)c(C(=O)OCCOC)c2nc3ccccc3nc21` here?
A: 134%

Q: Which inhibition does the source give for `Nc1c(C(=O)NCCc2ccccc2)c2nc3ccccc3nc2n1CCN1CCOCC1` here?
A: 102%

Q: How did the inhibition turn out when `Nc1c(C(=O)OC2CCCCC2)c2nc3ccccc3nc2n1CC1CCCO1` (configuration not stated) was run?
A: 130%

Q: Which inhibition does the source give for `CC(C)n1c(O)c(C2c3cc(Cl)ccc3Oc3[nH]c(=O)n(C(C)C)c(=O)c32)c(=O)[nH]c1=O` (configuration not stated) here?
A: 75.3%
